Test results as given in the RNAGym collection of RNA variant scans (doi:10.7554/elife.90254).
Read counts are not given, so values of variants with three or more changes are uncertain.

B1: OR4K15 (parent)
chain: GUUAACGGUCAUAGGCCAUGGAAACUAGGAGCACCAUUUCGCUGCCAGUGAAGAAAUGAACAAAGAAAAUCUGGGCCAGGCAGGCAUCAAAAGAAAUAGUCUUGCGCUCAACCAGAAAGUCUGUAAUCAUUUUAAGGGUA

Variants of: B1
Assay: self-cleavage, relative activity (ratio to wild type); higher = more cleavage; in vitro, sequencing; the parent is a self-cleaving ribozyme

Variant	self-cleavage
A23G U38C A60G A67G U72G	0.04
A23G U38C A62G	0.56
A23G U38C A92G A126G	0.52
A23G U38C A95G U127G	1.16
A23G U38C U43C A59G U97C A98U A126G U127C	0.39
A23G U38G A59U	0
A23G U39A A54G A126U	1
A23G U39A A64G A95G	1.07
A23G U39A A64G U87G A95G A118G	0.19
A23G U39A A135U	0.86
A23G U39C A64C G83U A110G U120C	0.02
A23G U39C A82G A90G A117G U131C	0.15
A23G U39C A86U A111U A129G	0.04
A23G U39C U72G	0.24
A23G U39C U127C	0.57
A23G U39C U131C	1.44
A23G U39C U132A	1.29
A23G U43A A47G U49A U87C A117G U131C G136A	1.32
A23G U43A A52C A78G U122G	0.26
A23G U43A A55G A62G U72C A95G	0.16
A23G U43A A82G U139C	0.23
A23G U43C A51G A91G U139C	0.47
A23G U43C C113U U139A	0.08
A23G U43C U57C A95G A129G	0.43

Variant	self-cleavage
A23G U43C U120C U127C	1.01
A23G U49A A60G A67G U72A	0.26
A23G U49A A96G A118G U131C	0.74
A23G U49A C112U	0.05
A23G U49C A51G A62G A96G	0.71
A23G U49C A51G A62G G75U U103C	0.05
A23G U49C A52G A69G	0.86
A23G U49C A56G U108C	0
A23G U49C U70A A91G U100C U127C	1.21
A23G U49G U57A A59G U97A	1.19
A23G U70C A111G	0.03
A23G U87C A91G	1.32
A23G U87C A117G	1.59
A23G U97A A129C	1.03
A23G U97A A135C	1.46
A23G U97C A111U	0.16
A23G U102A U139C	0.57
A23G U108A A118U	0.06
A23G U108C A135G	0.06
A23G U120A A135U	1.27
A23U A24C U133C	0.85
A23U A24G A62G A118U	0.38
A23U A24G G28A A69G G83U U132C	0.49
A23U A24G U39C U87A	1.48

Variant	self-cleavage
A23U A27G A56G A62G C85G A111G	0
A23U A27U A63C U70A A118G U132C	0.42
A23U A30G A52G A66G A90U A116G A125G	0.32
A23U A30G A82G	0.78
A23U A30G A82U	0.24
A23U A30U U38C A47U A64G A111G C113U	0.02
A23U A30U U38C U103C A125G	0.38
A23U A33G A62U U70A A110G G136U	0.06
A23U A47G A52U	1.59
A23U A47G A98G	0.15
A23U A51G G58A A98G	0.22
A23U A52G A91G	1.56
A23U A52G A94G	2.18
A23U A55G A66G A96U	0.66
A23U A55G A66G A114U	0.1
A23U A59G A110G	0.05
A23U A60G U87C A96G	1.46
A23U A82G A118G	0.44
A23U A90G U103G	0.05
A23U A92G U102C	0.87
A23U A110G A116G	0.09
A23U A111C A114U	0.03
A23U A114G U130C	0.15
A23U G29U A56G U120C	0.94

Variant	self-cleavage
A23U G58A A59G A60G U132C	0.7
A23U U26C A66G	1.86
A23U U38C C121U	1.5
A23U U39C A82G	0.47
A23U U39C U49A A94G	0.77
A23U U122C G123A U130C	1.3
A24C A27G U39A U49C A51G U100C	1.18
A24C A30G A89C	1.83
A24C A30G A91G	1.14
A24C A33G A36G A94G U102C	1.84
A24C A33G A51G A66U	0.43
A24C A33G A91G A96G	0.9
A24C A47G A51G	0.41
A24C A47G A62G A68G A116G	0.36
A24C A51G A89G	0.6
A24C A51U A59G A90G U108A	0.04
A24C A55G A114U	0.04
A24C A56G A64G	1.49
A24C A59U A78G	0.37
A24C A62U U72C	0.14
A24C A64G A94G U103C	0.75
A24C A68G U87C	1.28
A24C A78U A91G	0.11
A24C A89G A125G	1.12

Variant	self-cleavage
A24C A92G U108C	0
A24C A92G U127A	2.81
A24C G74A A125G	0.04
A24C G99A U108C	0
A24C U26G A27G U100C U130C	0.81
A24C U37C A60G A68G	1.53
A24C U37C A63G U100C A116U	0.71
A24C U39C A92G U108C	0.04
A24C U43A A69G C81U A90G	0.12
A24C U49C A67G A78G U122A	0.19
A24C U49C A78G	0.18
A24C U49G A62G U108C A114U	0.02
A24C U70C G83C	0.4
A24C U72A A91G	0.09
A24C U108C A126G	0
A24G A27C U38C A47G A62G	1.34
A24G A27U U87A U103A A129G	0.46
A24G A30G A36G A56G A64G A67G A90G G106A U108C	0.02
A24G A30G A36G U72A A96G U108C A116G	0.02
A24G A30G A69U A94G A110G	0.06
A24G A30G U39G A52G A89U U102C A117U A134U	0.6
A24G A30G U102C A114U	0.09
A24G A30U A78G A95G	0.3
A24G A33C A86G U122A	1.5

Variant	self-cleavage
A24G A33G A60U A63G U87A	0.65
A24G A33U A126C	0.94
A24G A36C C88A A95G	1.31
A24G A47G A54G A56G G74A U122A	0.13
A24G A47G A62G U72C	0.17
A24G A47G A125G	0.32
A24G A47G U102A	0.53
A24G A47G U103C A117G U120C	0.11
A24G A47U A52U	0.09
A24G A47U U102C	1.75
A24G A51G A56G A59G A62G G106U U139A	0.02
A24G A51G A92G	1.03
A24G A51G A110G A114U A116G	0.02
A24G A51G A114G	0.24
A24G A51G G65A U87C A118G U120A	0.48
A24G A51G U103C A126C U131C	0.08
A24G A51G U130A A135U	1.36
A24G A51U A89G A111G	0.02
A24G A51U U87C	1.49
A24G A52C A82U A92G A129G	0.12
A24G A52G A55G U70C A86G U120C	0.27
A24G A52G A55U A82U	0.53
A24G A52G A60C A66G A69G A78C A110G U120C	0.13
A24G A52G A92G	1.27

Variant	self-cleavage
A24G A52G A95G U122A	1.07
A24G A52G G75A A82G	0.18
A24G A52U A56G A67G U87C A117U	0
A24G A52U U57C C77U U108C	0.01
A24G A52U U72A	0.25
A24G A52U U100C A135G	1.96
A24G A54G A64G A96G	1.68
A24G A54G A82G	0.73
A24G A54G A86G	1.48
A24G A54G A95G	1.83
A24G A54G C113U	0.24
A24G A54G U72A	0.05
A24G A54G U72A A94G U132C	0.31
A24G A54G U108C	0.07
A24G A54G U122C	1.52
A24G A55G A59G A60C A82U U103C U133C	0.05
A24G A55G A90G	0.32
A24G A55G A126G A135U	0.99
A24G A55G U72A A118G	0.03
A24G A55U A82G A111G	0.04
A24G A56G A59G U103C	0.94
A24G A56U A126G	0.25
A24G A59G A96G	1.22
